In publication PMC8065113:
Like-named read-outs stand apart in the source and are kept apart here. No constants are given. Whether binding was seen depends on the method and setting. Binding seen in cells or lysates may run through a third protein. Some results given as binding are weak or reduced against the parent protein; the word gives no strength.

Protein sequences, listed by entry. Tags and fused reporters are not part of them. Lines headed by an entry give the natural chain unless they say otherwise; changes in a name come on top. Residues count along the entry.
UniProt Q99961, residues 311-368: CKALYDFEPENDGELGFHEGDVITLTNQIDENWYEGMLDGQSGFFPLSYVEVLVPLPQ
UniProt Q99962, residues 295-352: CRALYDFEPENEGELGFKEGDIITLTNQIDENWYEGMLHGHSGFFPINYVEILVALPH
UniProt Q99963, residues 291-347: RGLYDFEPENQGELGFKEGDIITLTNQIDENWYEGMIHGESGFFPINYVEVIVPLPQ
UniProt P49840: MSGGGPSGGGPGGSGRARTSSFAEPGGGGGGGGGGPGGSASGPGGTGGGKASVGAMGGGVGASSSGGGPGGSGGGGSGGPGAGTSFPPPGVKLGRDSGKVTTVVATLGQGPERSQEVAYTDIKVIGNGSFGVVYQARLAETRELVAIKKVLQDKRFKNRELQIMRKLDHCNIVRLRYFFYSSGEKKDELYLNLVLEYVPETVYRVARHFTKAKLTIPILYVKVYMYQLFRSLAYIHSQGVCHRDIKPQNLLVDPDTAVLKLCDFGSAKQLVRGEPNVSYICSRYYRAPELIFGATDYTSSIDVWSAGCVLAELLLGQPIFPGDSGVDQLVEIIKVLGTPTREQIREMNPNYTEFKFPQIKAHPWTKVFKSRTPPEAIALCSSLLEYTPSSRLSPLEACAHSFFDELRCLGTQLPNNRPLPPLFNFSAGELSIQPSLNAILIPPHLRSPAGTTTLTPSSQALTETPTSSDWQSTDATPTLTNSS
UniProt Q62188: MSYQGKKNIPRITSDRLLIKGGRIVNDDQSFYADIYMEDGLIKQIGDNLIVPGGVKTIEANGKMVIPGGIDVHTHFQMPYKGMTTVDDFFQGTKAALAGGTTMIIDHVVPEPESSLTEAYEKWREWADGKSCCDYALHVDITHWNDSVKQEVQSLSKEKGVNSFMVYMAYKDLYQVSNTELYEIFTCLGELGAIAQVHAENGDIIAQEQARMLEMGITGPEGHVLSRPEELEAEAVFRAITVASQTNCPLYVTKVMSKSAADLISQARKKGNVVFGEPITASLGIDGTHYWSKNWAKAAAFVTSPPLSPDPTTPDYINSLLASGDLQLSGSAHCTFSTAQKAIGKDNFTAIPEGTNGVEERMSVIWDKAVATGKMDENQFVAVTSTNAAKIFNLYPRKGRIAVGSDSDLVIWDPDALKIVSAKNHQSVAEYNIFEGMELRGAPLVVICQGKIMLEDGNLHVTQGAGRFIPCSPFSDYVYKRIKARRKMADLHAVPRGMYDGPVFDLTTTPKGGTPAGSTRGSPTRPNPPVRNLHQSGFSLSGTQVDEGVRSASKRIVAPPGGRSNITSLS

How the values were obtained:
[1] = biological target: GST-SH3 domain of Endophilin A2 (human) (UniProt Q99961); test: pull-down; GST-SH3 domains on glutathione beads incubated overnight at 4 °C with non-transfected cell lysates (20 mM HEPES, 1 mM EDTA, 0.2% Triton X-100); endogenous proteins detected by immunoblot; resting cells, cells treated with 5 μM Dinaciclib and CHIR-99021 for 10 min (Fig. 4c) or with extra 10% FBS for 10 min (Fig. 7d); only the target purified
[2] = biological target: GST-SH3 domain of Endophilin A1 (human) (UniProt Q99962); test: pull-down; GST-SH3 domains of Endophilin A1, A2 or A3 on glutathione beads incubated overnight at 4 °C with extracts of cells expressing EGFP-tagged CRMP proteins; immunoblot with anti-EGFP; only the target purified
[3] = biological target: GST-SH3 domain of Endophilin A3 (human) (UniProt Q99963); test: as above
[4] = biological target: GST-SH3 domain of Endophilin A2 (human) (UniProt Q99961); test: pull-down; GST-SH3 domains on glutathione beads incubated overnight at 4 °C with non-transfected cell lysates (20 mM HEPES, 1 mM EDTA, 0.2% Triton X-100); endogenous proteins detected by immunoblot; resting cells, cells treated with 5 μM Dinaciclib and CHIR-99021 for 10 min (Fig. 4c) or with extra 10% FBS for 10 min (Fig. 7d); only the target purified; remark: listed apart in the source

Molecule	binding [1]	binding [2]	binding [3]	binding [4]
GSK3α (endogenous) (from UniProt P49840 1-483) (enzyme)	no binding			
CRMP4-EGFP R525E (from UniProt Q62188 1-570)		no binding	no binding	
CRMP4-EGFP wild-type (from UniProt Q62188 1-570)		binds	binds	
CRMP4-EGFP P526A (from UniProt Q62188 1-570)		no binding	no binding	
CRMP4-EGFP P502A (from UniProt Q62188 1-570)		binds	binds	
Dynamin-1 (endogenous) (protein, UniProt Q05193 1-864) MGNRGMEDLIPLVNRLQDAFSAIGQNADLDLPQIAVVGGQSAGKSSVLENFVGRDFLPRGSGIVTRRPLVLQLVNATTEYAEFLHCKGKKFTDFEEVRLEIEAETDRVTGTNKGISPVPINLRVYSPHVLNLTLVDLPGMTKVPVGDQPPDIEFQIRDMLMQFVTKENCLILAVSPANSDLANSDALKVAKEVDPQGQRTIGVITKLDLMDEGTDARDVLENKLLPLRRGYIGVVNRSQKDIDGKKDITAALAAERKFFLSHPSYRHLADRMGTPYLQKVLNQQLTNHIRDTLPGLRNKLQSQLLSIEKEVEEYKNFRPDDPARKTKALLQMVQQFAVDFEKRIEGSGDQIDTYELSGGARINRIFHERFPFELVKMEFDEKELRREISYAIKNIHGIRTGLFTPDMAFETIVKKQVKKIREPCLKCVDMVISELISTVRQCTKKLQQYPRLREEMERIVTTHIREREGRTKEQVMLLIDIELAYMNTNHEDFIGFANAQQRSNQMNKKKTSGNQDEILVIRKGWLTINNIGIMKGGSKEYWFVLTAENLSWYKDDEEKEKKYMLSVDNLKLRDVEKGFMSSKHIFALFNTEQRNVYKDYRQLELACETQEEVDSWKASFLRAGVYPERVGDKEKASETEENGSDSFMHSMDPQLERQVETIRNLVDSYMAIVNKTVRDLMPKTIMHLMINNTKEFIFSELLANLYSCGDQNTLMEESAEQAQRRDEMLRMYHALKEALSIIGDINTTTVSTPMPPPVDDSWLQVQSVPAGRRSPTSSPTPQRRAPAVPPARPGSRGPAPGPPPAGSALGGAPPVPSRPGASPDPFGPPPQVPSRPNRAPPGVPSRSGQASPSRPESPRPPFDL				binds
